According to the supplement of paper PMC8728848:
The other results are listed elsewhere or left out.

Assays:
Experiment in all cases: glycan array binding signal (z-score within array); higher = stronger binding
Conditions in all cases: glycan notation: IUPAC condensed, linker removed
[1] = biological target: GlcNAc(a1-4)Gal(b1-4)GlcNAc(b1-3)Gal(b1-4)[Fuc(a1-3)]GlcNAc(b1-3)Gal(b1-4)[Fuc(a1-3)]GlcNAc
In short: (§1)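 Arrays were curated from the Consortium for Functional Glycomics database, 3228 in total, and kept only where the protein sequence was available. Binding is expressed as a within-array Z-score. This score was averaged across arrays of the same protein sequence at different concentrations or buffers and across linkers, and negative values can be read as non-binding.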

[2] = biological target: GlcNAc(a1-6)Gal(b1-4)GlcNAc
In short: as §1

[3] = biological target: GlcNAc(b1-2)Gal(b1-3)GalNAc
In short: as §1

[4] = biological target: GlcNAc(b1-2)Man(a1-3)[GlcNAc(b1-2)Man(a1-6)]Man(b1-4)GlcNAc(b1-4)GlcNAc
In short: as §1

[5] = biological target: GlcNAc(b1-2)Man(a1-3)[GlcNAc(b1-2)Man(a1-6)]Man(b1-4)GlcNAc(b1-4)[Fuc(a1-6)]GlcNAc
In short: as §1

GlcNAc(b1-3)Gal = biological target: GlcNAc(b1-3)Gal
In short: as §1

[6] = biological target: GlcNAc(b1-3)Gal(b1-3)GalNAc
In short: as §1

GlcNAc(b1-3)Gal(b1-4)Glc = biological target: GlcNAc(b1-3)Gal(b1-4)Glc
In short: as §1

[7] = biological target: GlcNAc(b1-3)Gal(b1-4)GlcNAc
In short: as §1

[8] = biological target: GlcNAc(b1-3)Gal(b1-4)GlcNAc(b1-3)Gal(b1-4)GlcNAc
In short: as §1

GlcNAc(b1-3)GalNAc = biological target: GlcNAc(b1-3)GalNAc
In short: as §1

GlcNAc(b1-3)Man = biological target: GlcNAc(b1-3)Man
In short: as §1

[9] = biological target: GlcNAc(b1-3)[GlcNAc(b1-4)][GlcNAc(b1-6)]GlcNAc
In short: as §1

[10] = biological target: GlcNAc(b1-3)[GlcNAc(b1-6)]Gal(b1-4)GlcNAc
In short: as §1

[11] = biological target: GlcNAc(b1-3)[GlcNAc(b1-6)]GalNAc
In short: as §1

[12] = biological target: GlcNAc(b1-4)Gal(b1-4)GlcNAc
In short: as §1

GlcNAc(b1-4)GlcNAc = biological target: GlcNAc(b1-4)GlcNAc
In short: as §1

[13] = biological target: GlcNAc(b1-4)GlcNAc(b1-4)GlcNAc
In short: as §1

[14] = biological target: GlcNAc(b1-4)GlcNAc(b1-4)GlcNAc(b1-4)GlcNAc(b1-4)GlcNAc
In short: as §1

[15] = biological target: GlcNAc(b1-4)GlcNAc(b1-4)GlcNAc(b1-4)GlcNAc(b1-4)GlcNAc(b1-4)GlcNAc
In short: as §1

[16] = biological target: GlcNAc(b1-4)[GlcNAc(b1-6)]GalNAc
In short: as §1

[17] = biological target: GlcNAc(b1-6)Gal(b1-4)GlcNAc
In short: as §1

GlcNAc(b1-6)GalNAc = biological target: GlcNAc(b1-6)GalNAc
In short: as §1

GlcNAc3Prop(b1-4)GlcNAc = biological target: GlcNAc3Prop(b1-4)GlcNAc
In short: as §1

[18] = biological target: GlcNAc6S(b1-3)Gal(b1-4)GlcNAc
In short: as §1

Kdn(a2-3)Gal(b1-3)GalNAc = biological target: Kdn(a2-3)Gal(b1-3)GalNAc
In short: as §1

Kdn(a2-3)Gal(b1-3)GlcNAc = biological target: Kdn(a2-3)Gal(b1-3)GlcNAc
In short: as §1

Kdn(a2-3)Gal(b1-4)Glc = biological target: Kdn(a2-3)Gal(b1-4)Glc
In short: as §1

Kdn(a2-3)Gal(b1-4)GlcNAc = biological target: Kdn(a2-3)Gal(b1-4)GlcNAc
In short: as §1

[19] = biological target: Kdn(a2-3)Gal(b1-4)[Fuc(a1-3)]GlcNAc
In short: as §1

Kdn(a2-6)Gal(b1-4)GlcNAc = biological target: Kdn(a2-6)Gal(b1-4)GlcNAc
In short: as §1

[20] = biological target: Man(a1-2)Man(a1-2)Man(a1-3)Man
In short: as §1

[21] = biological target: Man(a1-2)Man(a1-2)Man(a1-6)[Man(a1-3)]Man
In short: as §1

Man(a1-2)Man(a1-3)Man = biological target: Man(a1-2)Man(a1-3)Man
In short: as §1

[22] = biological target: Man(a1-2)Man(a1-3)[Man(a1-2)Man(a1-6)]Man
In short: as §1

[23] = biological target: Man(a1-2)Man(a1-3)[Man(a1-2)Man(a1-6)]Man(a1-6)[Man(a1-2)Man(a1-2)Man(a1-3)]Man
In short: as §1

[24] = biological target: Man(a1-2)Man(a1-3)[Man(a1-2)Man(a1-6)]Man(a1-6)[Man(a1-2)Man(a1-2)Man(a1-3)]Man(b1-4)GlcNAc(b1-4)GlcNAc
In short: as §1

[25] = biological target: Man(a1-2)Man(a1-3)[Man(a1-6)]Man(a1-6)[Man(a1-2)Man(a1-3)]Man(b1-4)GlcNAc(b1-4)GlcNAc
In short: as §1

[26] = biological target: Man(a1-2)Man(a1-6)[Man(a1-3)]Man(a1-6)[Man(a1-2)Man(a1-2)Man(a1-3)]Man
In short: as §1

[27] = biological target: Man(a1-2)Man(a1-6)[Man(a1-3)]Man(a1-6)[Man(a1-2)Man(a1-2)Man(a1-3)]Man(b1-4)GlcNAc(b1-4)GlcNAc
In short: as §1

Man(a1-3)[Man(a1-6)]Man = biological target: Man(a1-3)[Man(a1-6)]Man
In short: as §1

[28] = biological target: Man(a1-3)[Man(a1-6)]Man(a1-6)[Man(a1-2)Man(a1-3)]Man(b1-4)GlcNAc(b1-4)GlcNAc
In short: as §1

[29] = biological target: Man(a1-3)[Man(a1-6)]Man(a1-6)[Man(a1-3)]Man
In short: as §1

[30] = biological target: Man(a1-3)[Man(a1-6)]Man(a1-6)[Man(a1-3)]Man(b1-4)GlcNAc(b1-4)GlcNAc
In short: as §1

GIINTLQKYYCRVRGGRCAVLSCLPKEEQIGKCSTRGRKCCRRKK [Beta-Defensin 3 (Homo sapiens), P81534]
glycan array binding signal (z-score) [1]: 2.84 | glycan array binding signal (z-score) [2]: -0.653 | glycan array binding signal (z-score) [3]: -0.486 | glycan array binding signal (z-score) [4]: -0.572 | glycan array binding signal (z-score) [5]: -0.229 | glycan array binding signal (z-score) (GlcNAc(b1-3)Gal): -0.265 | glycan array binding signal (z-score) [6]: -0.317 | glycan array binding signal (z-score) (GlcNAc(b1-3)Gal(b1-4)Glc): -0.267 | glycan array binding signal (z-score) [7]: -0.431 | glycan array binding signal (z-score) [8]: -0.356 | glycan array binding signal (z-score) (GlcNAc(b1-3)GalNAc): -0.296 | glycan array binding signal (z-score) (GlcNAc(b1-3)Man): 0.027 | glycan array binding signal (z-score) [9]: -0.457 | glycan array binding signal (z-score) [10]: -0.55 | glycan array binding signal (z-score) [11]: -0.468 | glycan array binding signal (z-score) [12]: -0.618 | glycan array binding signal (z-score) (GlcNAc(b1-4)GlcNAc): -0.569 | glycan array binding signal (z-score) [13]: -0.463 | glycan array binding signal (z-score) [14]: -0.136 | glycan array binding signal (z-score) [15]: -0.326 | glycan array binding signal (z-score) [16]: -0.531 | glycan array binding signal (z-score) [17]: -0.369 | glycan array binding signal (z-score) (GlcNAc(b1-6)GalNAc): -0.454 | glycan array binding signal (z-score) (GlcNAc3Prop(b1-4)GlcNAc): -0.456 | glycan array binding signal (z-score) [18]: -0.665 | glycan array binding signal (z-score) (Kdn(a2-3)Gal(b1-3)GalNAc): 1.06 | glycan array binding signal (z-score) (Kdn(a2-3)Gal(b1-3)GlcNAc): -0.066 | glycan array binding signal (z-score) (Kdn(a2-3)Gal(b1-4)Glc): -0.135 | glycan array binding signal (z-score) (Kdn(a2-3)Gal(b1-4)GlcNAc): -0.083 | glycan array binding signal (z-score) [19]: 0.297 | glycan array binding signal (z-score) (Kdn(a2-6)Gal(b1-4)GlcNAc): 0.152 | glycan array binding signal (z-score) [20]: -0.376 | glycan array binding signal (z-score) [21]: -0.442 | glycan array binding signal (z-score) (Man(a1-2)Man(a1-3)Man): -0.337 | glycan array binding signal (z-score) [22]: -0.276 | glycan array binding signal (z-score) [23]: -0.582 | glycan array binding signal (z-score) [24]: -0.123 | glycan array binding signal (z-score) [25]: -0.173 | glycan array binding signal (z-score) [26]: -0.461 | glycan array binding signal (z-score) [27]: -0.521 | glycan array binding signal (z-score) (Man(a1-3)[Man(a1-6)]Man): -0.232 | glycan array binding signal (z-score) [28]: -0.424 | glycan array binding signal (z-score) [29]: -0.552 | glycan array binding signal (z-score) [30]: -0.316
